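How tested: cells in 96-well plates exposed to compound for 48 hours at five concentrations. GI50 marks 50% less growth.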 Calls of active or inactive are those of the source. Cut-off read from the data, not from the text of the source: active = GI50 up to about 1.1 µM and inactive = higher.
Key:
Assay in all cases: NCI-60 cell line screen, 48 h
[1] = system: Malme-3M
[2] = system: M14
[3] = system: KM12
[4] = system: TK-10
[5] = system: SN12C
[6] = system: T47D
[7] = system: EKVX
[8] = system: SK-MEL-5
[9] = system: HL-60
[10] = system: SF-268
[11] = system: IGROV-1
[12] = system: A549
[13] = system: RPMI-8226
[14] = system: HCT-116
[15] = system: UO-31
[16] = system: 786-0
[17] = system: ACHN
[18] = system: MDA-N
[19] = system: PC-3
[20] = system: SNB-19
[21] = system: COLO 205
[22] = system: MOLT-4
[23] = system: NCI/ADR-RES
[24] = system: Hs-578T
[25] = system: SW-620
[26] = system: SF-295
[27] = system: MDA-MB-231
[28] = system: OVCAR-3
[29] = system: RXF 393
[30] = system: DU-145
[31] = system: HOP-62
[32] = system: U-251
[33] = system: A498
[34] = system: CAKI-1
[35] = system: UACC-62
[36] = system: MCF7
[37] = system: UACC-257
[38] = system: SK-MEL-28
[39] = system: SR
[40] = system: NCI-H23
[41] = system: OVCAR-5
[42] = system: SK-OV-3
[43] = system: LOX IMVI
[44] = system: HCC 2998
[45] = system: SNB-75
[46] = system: HOP-92
[47] = system: MDA-MB-435
[48] = system: NCI-H460
[49] = system: NCI-H522
[50] = system: HCT-15
[51] = system: K562
[52] = system: OVCAR-4
[53] = system: BT-549
[54] = system: OVCAR-8
[55] = system: CCRF-CEM
[56] = system: SK-MEL-2

O=C1Cc2c([nH]c3cc(Cl)cc(Cl)c23)-c2ccccc2N1 was tested, and the GI50 [1] was inactive: > 100 µM, the GI50 [2] was inactive: > 100 µM and the GI50 [3] was inactive: > 100 µM. The GI50 [4] was inactive: > 100 µM, the GI50 [5] was inactive: > 100 µM and the GI50 [6] was inactive: > 100 µM. For the same compound, the GI50 [7] was inactive: > 100 µM, the GI50 [8] was inactive: > 100 µM and the GI50 [9] was inactive: 25.9 µM. For the same compound, the GI50 [10] was inactive: > 100 µM, the GI50 [11] was inactive: > 100 µM and the GI50 [12] was inactive: > 100 µM. The GI50 [13] was inactive: > 100 µM, the GI50 [14] was inactive: > 100 µM and the GI50 [15] was inactive: > 100 µM. The GI50 [16] was inactive: > 100 µM, the GI50 [17] was inactive: > 100 µM and the GI50 [18] was inactive: > 100 µM. The GI50 [19] was inactive: > 100 µM, the GI50 [20] was inactive: > 100 µM and the GI50 [21] was inactive: > 100 µM. The GI50 [22] was inactive: 77.4 µM, the GI50 [23] was inactive: > 100 µM and the GI50 [24] was inactive: > 100 µM. The GI50 [25] was inactive: > 100 µM, the GI50 [26] was inactive: 77.8 µM and the GI50 [27] was inactive: > 100 µM. For the same compound, the GI50 [28] was inactive: > 100 µM, the GI50 [29] was inactive: > 100 µM and the GI50 [30] was inactive: > 100 µM. For the same compound, the GI50 [31] was inactive: 59 µM, the GI50 [32] was inactive: > 100 µM and the GI50 [33] was inactive: > 100 µM. The GI50 [34] was inactive: > 100 µM, the GI50 [35] was inactive: > 100 µM and the GI50 [36] was inactive: > 100 µM. For the same compound, the GI50 [37] was inactive: > 100 µM, the GI50 [38] was inactive: > 100 µM and the GI50 [39] was inactive: > 100 µM. The GI50 [40] was inactive: > 100 µM, the GI50 [41] was inactive: > 100 µM and the GI50 [42] was inactive: > 100 µM. The GI50 [43] was inactive: > 100 µM, the GI50 [44] was inactive: > 100 µM and the GI50 [45] was inactive: 29.2 µM. For the same compound, the GI50 [46] was inactive: > 100 µM, the GI50 [47] was inactive: > 100 µM and the GI50 [48] was inactive: > 100 µM. The GI50 [49] was inactive: > 100 µM, the GI50 [50] was over 100 µM and the GI50 [51] was inactive: 34 µM. The GI50 [52] was inactive: > 100 µM, the GI50 [53] was inactive: > 100 µM and the GI50 [54] was inactive: > 100 µM. For the same compound, the GI50 [55] was inactive: > 100 µM and the GI50 [56] was inactive: > 100 µM.
